This is an account of results in the RNAGym collection of RNA variant scans (doi:10.1073/pnas.2313332121).

Variants at the floor of the assay are shown more often than the library holds them.

The labels stand for the following.
B1: TPR 5TU (parent)
chain: GGAUCUUCUCGAUCUAACAAAAAAGACAAAUCUGCCACAAAGCUUGAGAGCAUCUUCGGAUGCAGAGGCGGCAGCCUUCGGUGGCGCGAUAGCGCCAACGUUCUCAACUAUGACACGCAAAACGCGUGCUCCGUUGAAUGGAGUUUAUCAUG

In this data set the parent is B1. The experiment in a line: polymerase ribozyme fitness, log enrichment relative to wild type (log ratio); higher = more active; in vitro selection for triplet polymerase activity. The method in brief: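 Fitness measures genotype enrichment against wild-type enrichment on a logarithmic scale, with inverse-variance-weighted averaging of replicates. The logarithm is base 2, and genotypes were kept only with ≥10 input reads and ≥1 read per output in Illumina sequencing. The sequenced libraries came from one triplicate in vitro selection round, including frozen incubation at −7 °C, of PCR-built, transcribed mutant libraries of each subunit of a heterodimeric triplet polymerase ribozyme.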
For the variant GGAUCUUCUCGAUCUAACAAAAUAGUCAAAUCUGCCACAAAGCUUGAGAGAAUCUUCGGAUGCAGUGGCGGCAGCCUUCGGUGGUGCGAUAGCGCCAACGUUCUCAACUAUGACACGCAAAACGCGUGCUCCGUUGAAUGGAGUUUACCAUG [A23U A26U C51A A66U C85U U148C], the “polymerase ribozyme fitness (log ratio)” value is ≤ -4.2.

In the case of GGAUCUUCUCGAUCUAACAAAAUAGACAAAUCUGCCACAAAGCUUGUGAGCAUCUUCGGAAGCAGAGGCGGCAGCCUUCGUUGGCGCGAUAGCGCCAACGUUCUCAACUAUGACACGCAAAACGCUUGCUCCGUUGAAUGGAGUUUAUCAUG [A23U A47U U61A G81U G126U], the “polymerase ribozyme fitness (log ratio)” value is ≤ -4.2.

For GGAUCUUCUCGAUCUAACAAAAGAGACAAAUCUGCCACAAAGCUUGAGAGCAUCUUCGGAUGCAGAGGCGGCAGCCUUCGGUGGCGCGAUAGCGCCAACGUUCUCAACUAUGACACGCAAAACGCGUGCCCCGUUGAUUGGAGUUUAUCAUG [A23G U130C A138U], the “polymerase ribozyme fitness (log ratio)” value is -4.2.

GGAUCUUCUCGAUCUAACAAAAUAGACAAAUCUGCCACAAAGCUUGAGGGCAUCUACGGAUGCAGAGGCGGCAGCCUUCGGUGGCGCGAUAGCGCCAACGUUCUCAACUAUGUCACGCAAAACGCGUGCUCCGUUGAAUUGAGUUUAUCAUG [A23U A49G U56A A113U G140U]: the “polymerase ribozyme fitness (log ratio)” value was ≤ -4.2.

As for GGAUCUUCUCGAUCUAACAAAAUAGACAAAUCUGCCACAAAGCUUGAGAGCCUCUUCGGUUGCAGAGGCGGCAGCCUUAGGUGGCGCGAUAGCGCCAACGUCCUCAACUAUGACACGCAAAACGCGUGCUCCGUUGAGUGGAGUUUAUCAUG [A23U A52C A60U C79A U102C A138G], the “polymerase ribozyme fitness (log ratio)” value was ≤ -4.2.

For GGAUCUUCUCGAUCUAACAAAAUAGACAUAUCUGCCACAAAGCUUGAGAGCAUCUUCGGAUGCAGAGGCGGCAGCCUUGGUUGGCGCGAUAGGGCCAACGUUCUCAACUAUGACACGCAAAACGCGUGCUCCGUUGAAUGGAGUUUAUUAUG [A23U A29U C79G G81U C93G C149U], the “polymerase ribozyme fitness (log ratio)” value is ≤ -4.2.

As to GGAUCUUCUCGAUCUAACAAAAUAGACUAAUCUGCCACAAAGCAUGCGAACAUCUUCGGAUGCAGAGGCGGCAGCCUUCGGUGGCGCGAUAGAGCCAGCGUUCUCAACUAUGACUCGCAAAACGCGUGCUCCGUUGACUCGAGUUUAUAAUG [A23U A28U U44A A47C G50A C93A A98G A115U A138C G140C C149A], the “polymerase ribozyme fitness (log ratio)” value was ≤ -4.2.

Consider GGAUCUUCUCGAUCUAACAAAAUAGGCAAAUCUGCCACAAAGCUUGAGAGCAUCUUCGGAUGCAGAGGCGGCAGCCUUCGGUGGCGCGAUCGCGCCAACGUUCUCAACUAUGACACGCAAAACGCGUGCUCCGUUGAAUGGAGUUUAUCAUG [A23U A26G A91C], for which the “polymerase ribozyme fitness (log ratio)” value is ≤ -4.2.

In the case of GGAUCUUCUCGAUCUAACAAAAUAGACACAUCUGCCACAAAGCUUGAGAGCAUCUUCGGAUCCAGAGUCGGCAGCCUUCGGUGGCGCGAUAGCGUCAAAGUUCUCAACUAUGACACGCAAACCGCGUGCUCCGUUGAAUGGUGUUUAUCAUG [A23U A29C G62C G68U C95U C99A A122C A142U], the “polymerase ribozyme fitness (log ratio)” value was ≤ -4.2.

For the variant GGAUCUUCUCGAUCUAACAAAAUAGACUAAUCUGCCACAAAGCUUGAGAGCAUCUUCGGAUGCAAAGGCGGCAGCCUUCUGUGGCGCGAUAGCGCCAAUGUUCUCAACUAUGACACGCAAAACGCGUGCUCAGUUGAAUGGAGUUUAUCAUG [A23U A28U G65A G80U C99U C132A], the “polymerase ribozyme fitness (log ratio)” value is ≤ -4.2.

For the variant GGAUCUUCUCGAUCUAACAAAAUAGACAAAUCUGCCACGAAGCUUGAGAGCAUCUUCGGAUGCCGAGGCGGCAGCCUUCGGUGGCGUGAUAGCGCCAACGUUCUGAACUAUGACACGCAAAACGCGUGCUCCGAUGAAUGGAGUUUAUCAUG [A23U A39G A64C C87U C105G U134A], the “polymerase ribozyme fitness (log ratio)” value is ≤ -4.2.

As to GGAUCUUCUCGAUCUAACAAAAUAGACAGAUCUGCCACAAAGCUUGAGAGCAUCUUCGGAUGCAGAGGCGGCAGCCUUCGGUGGCGCGAUAGCGCCAACGCUCUCAACUAUGACACGCAAAACGCGUGCUCCGUUGAAUGGAGUUUAUCAUG [A23U A29G U101C], the “polymerase ribozyme fitness (log ratio)” value is ≤ -4.2.

As for GGAUCUUCUCGAUCUAACAAAAUAGACAAUUCUGCCACAACGCUUGAGAGCAUCUUUGGAUGCAGAGGCGGCAGCCUUGGGUGGGGCGAUAGCGCCAACGUUCUCAACUAUGACACGCAACACGCGUGCUCCGUUGAAUGGCGUAUAUCAUG [A23U A30U A41C C57U C79G C85G A121C A142C U145A], the “polymerase ribozyme fitness (log ratio)” value was ≤ -4.2.

Turning to GGAUCUUCUCGAUCUAACAAAAGAGACAAAUCUGCCACAAAGCUUGAGAGCAUCUUCGGAUGCAGAGGCGGCAGCCUUCGGUGGCGCGAUAGCGCCAACGAUCUCAACUAUGACACGCAAAACGCGUGCUCCGUUGAAUGGAGUUUAUCAUG [A23G U101A], the “polymerase ribozyme fitness (log ratio)” value was -3.18.

As for GGAUCUUCUCGAUCUAACAAAAUAGACAAAUCUGCCACAAGGUUUGAGAGCAUCUUCGGAUGCAGAGGCGUCAGCCUUCGGUGGCGCGAUAGCGCAAACGUUCUCAACUAUGACACGAAAAACGCGUGCUCCGUAGAAUGGAGUUUAUCAUG [A23U A41G C43U G71U C96A C118A U135A], the “polymerase ribozyme fitness (log ratio)” value is ≤ -4.2.

With GGAUCUUCUCGAUCUAACAAAAUAGACAAGUCUGCCACAACGCUUGGGAGCAGCUACGGAUGCAGAGGCGGCAGACUUCGGUGGCGCGAUAGUGCCAACGUUCUCAAGUAUGACACGCAAAACGCGUGCUCCCUUAAAUGGAGUUUAUCAUG [A23U A30G A41C A47G U53G U56A C75A C93U C108G G133C G136A], the “polymerase ribozyme fitness (log ratio)” value was ≤ -4.2.

GGAUCUUCUCGAUCUAACAAAAUAGACAAAUCUGCCACACAGCUUGAGAGCAUAUUCGGAUGCAGAGGCGGCAGCCUUCGGUGGCGCGAUAGCGCCAACGUUCUCAACUAUGACACGCAAACCGCGUGCUCCGUAGCAUGGAGUUGAUCAUG [A23U A40C C54A A122C U135A A137C U146G]: the “polymerase ribozyme fitness (log ratio)” value is ≤ -4.2.

For GGAUCUUCUCGAUCUAACAAAAUAGACAAUUUUGCCACAAAGCUUGAGAGCAUCUUCGGAUGCAGAGGCGGCAGCCUUCGGUGACGCGAUAGCGCCAGCGUUCUCAACUAUGACACGCAAAACGCGUGCUCCGUUGAAUGGAGUUUAUCAUG [A23U A30U C32U G84A A98G], the “polymerase ribozyme fitness (log ratio)” value is ≤ -4.2.

On to GGAUCUUCUCGAUCUAACAAAAUAGACAAAUCUGCCACAAAGCUUGGGAACAUCUUCGGAUGCAGAGGCGGCUGCCUUCGGUGGCGAGAUAGCGCCAACGUUCUCAACUAUGACACGCAAAACGCGUGCUCCGUUGAAUGGAGUUUUUCAUG [A23U A47G G50A A73U C87A A147U], for which the “polymerase ribozyme fitness (log ratio)” value was ≤ -4.2.
